# According to publication PMC4336329 (PLoS ONE, 2015):
# About 14,000 (4.5%) of roughly 310,000 compounds showed an effect of 50% or more. The effect is printed as a negative number. The list shows a part of the results.
# Target: human ether-à-go-go-related gene (hERG) potassium channel (human, UniProt Q12809)
# Experiment: primary screen, population patch clamp on CHO cells stably expressing hERG
# 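Note: peak tail current of the secondary pulse compared with the same well before compound.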
# Sequence of human ether-à-go-go-related gene (hERG) potassium channel (Q12809 whole entry, looked up): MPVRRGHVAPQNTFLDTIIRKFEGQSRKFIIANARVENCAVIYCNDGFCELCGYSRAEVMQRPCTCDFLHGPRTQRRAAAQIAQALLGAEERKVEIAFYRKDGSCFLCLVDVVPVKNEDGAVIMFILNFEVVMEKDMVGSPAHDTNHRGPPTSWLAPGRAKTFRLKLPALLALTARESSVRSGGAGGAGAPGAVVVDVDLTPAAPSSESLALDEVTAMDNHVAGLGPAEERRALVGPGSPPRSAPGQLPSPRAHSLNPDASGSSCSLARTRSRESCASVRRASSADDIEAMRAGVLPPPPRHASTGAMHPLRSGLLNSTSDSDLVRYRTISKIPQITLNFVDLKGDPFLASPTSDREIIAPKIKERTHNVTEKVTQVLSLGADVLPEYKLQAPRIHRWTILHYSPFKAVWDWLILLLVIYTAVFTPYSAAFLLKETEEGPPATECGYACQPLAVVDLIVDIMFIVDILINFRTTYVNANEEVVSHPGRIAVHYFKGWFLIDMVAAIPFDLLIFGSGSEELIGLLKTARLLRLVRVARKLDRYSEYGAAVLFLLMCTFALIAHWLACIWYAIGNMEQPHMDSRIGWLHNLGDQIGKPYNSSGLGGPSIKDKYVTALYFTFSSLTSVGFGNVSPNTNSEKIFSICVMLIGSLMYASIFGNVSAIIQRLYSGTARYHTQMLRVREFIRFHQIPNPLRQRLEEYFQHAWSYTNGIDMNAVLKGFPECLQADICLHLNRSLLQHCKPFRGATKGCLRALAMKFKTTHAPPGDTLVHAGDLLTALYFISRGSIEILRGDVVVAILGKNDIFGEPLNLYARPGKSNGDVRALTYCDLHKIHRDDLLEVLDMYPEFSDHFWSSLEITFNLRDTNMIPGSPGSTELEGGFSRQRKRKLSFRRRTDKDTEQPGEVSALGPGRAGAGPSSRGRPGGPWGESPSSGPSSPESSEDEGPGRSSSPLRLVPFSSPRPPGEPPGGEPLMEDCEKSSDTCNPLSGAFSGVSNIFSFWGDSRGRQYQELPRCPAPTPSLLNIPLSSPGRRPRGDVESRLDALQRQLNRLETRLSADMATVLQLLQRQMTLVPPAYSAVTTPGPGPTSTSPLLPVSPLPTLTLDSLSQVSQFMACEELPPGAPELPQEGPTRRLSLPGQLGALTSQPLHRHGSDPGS
row,SMILES,"hERG current change (%, negative = inhibition) at 10uM [%]"
1,O=C1c2ccc(Oc3ccc([N+](=O)[O-])cc3)cc2C(=O)N1CCO,-52.8
2,Cc1ccc(C(=O)N(CCC2=CCCCC2)c2c(N)n(Cc3ccccc3)c(=O)[nH]c2=O)o1,-16.4
3,CCN(CC)Cc1cc(C(C)=O)ccc1O.Cl,2.32
4,O=C(CNC(=O)c1ccccc1)c1ccccc1,4.42
5,CCCCNC1CCS(=O)(=O)C1 (stereo not drawn),7.23
6,Cc1ccc(/C=C2/C(=O)NC(=O)N(C)C2=O)cc1,17.2
7,S=C(N=Nc1ccccc1)NNc1ccccc1,8.75
8,COc1cccc(CNC(=O)CCc2nnc3ccc(NCCCN4CCCC4=O)nn23)c1,26.5
9,C/C(=N\NC(=O)c1ccc(O)cc1O)c1cccnc1,17.9
10,Cc1ccc(C(=O)NC(=S)Nc2cccc(-c3nc4ccccc4s3)c2)cc1,15.9
11,CC1CCC(NC(=O)C(Cc2ccccc2)n2cccc2)CC1 (stereo not drawn),-14.9
12,CNC(=S)N1CCN=C1Nc1nc(C)cc(C)n1,6.29
13,Cc1ccc(S(=O)(=O)N2CCC(C(=O)NCCN3CCOCC3)CC2)cc1C,8.7
14,CCOP(=O)(OCC)c1nc(-c2ccccc2)oc1NCc1ccccc1,-2.95
15,CC(=O)N1CCN(C(=O)CNC(=O)c2cccs2)CC1,-3.57
16,Cc1ccccc1C(=O)Oc1cccc(Nc2ncnc3ccccc23)c1,-3.38
17,Cc1cccc(C)c1NC(=O)COc1ccccc1C(=O)Nc1ccc(Br)cn1,14.4
18,Cc1ccccc1N1C(=O)C2C3CC(=O)C(c4ccccc43)C2C1=O (stereo not drawn),1.95
19,Cc1c(NC(=S)NC(=O)c2cccc([N+](=O)[O-])c2)c(=O)n(-c2ccccc2)n1C,-5.88
20,O=C(Nc1ccc(Nc2ccccc2)cc1)c1c(Cl)cccc1Cl,12.3
21,O=C(CCNC(=O)c1ccco1)Nc1ccc(OC(F)(F)F)cc1,2.54
22,Cc1ccc(NC(=O)Nc2cccc(C)n2)c(C)c1,-10.7
23,Cc1cc(C)nc(NS(=O)(=O)c2ccc(NC(=O)c3cccs3)cc2)n1,1.23

row,SMILES,"hERG current change (%, negative = inhibition) at 10uM [%]"
1,O=C(O)CCCCCCCCCC(=O)c1cccs1,20.6
2,COc1ccc(NC(=O)CNc2ccc(C#N)cc2)cc1,-18.2
3,O=C(Nc1nccs1)C(F)(F)C(F)(F)C(F)(F)C(=O)Nc1nccs1,12.7
4,CCn1cc(C(=O)OCC(=O)c2cc(C)n(-c3ccc(OC(F)F)cc3)c2C)c(=O)c2ccc(C)nc21,-27.9
5,O/N=C/c1ccc(OCc2ccccc2)c(Br)c1,30
6,CC1=CC(C)(C)N2C(=O)C3(NCCc4c3[nH]c3ccccc43)c3cc(C)cc1c32 (stereo not drawn),13.8
7,CC(=O)Oc1ccc2c(=O)oc(-c3ccccc3C)nc2c1,-0.478
8,CN(C)S(=O)(=O)c1ccc(N2CCCC2)c(C(=O)NCCc2ccc(F)cc2)c1,-31.9
9,C=C(C)Cn1c(CNC(C)=O)nc2ccccc21,1.73
10,COc1ccc2oc(=O)c(C(=O)N3c4ccccc4CC3C)cc2c1 (stereo not drawn),-21.6
11,CCC1CCc2sc(C(=O)N(C)CC(=O)Nc3cccc(OC)c3)cc2C1 (stereo not drawn),-2.55
12,C=CCN1C(=O)C2C3CC(=O)C(c4ccccc43)C2C1=O (stereo not drawn),26.8
13,COCc1[nH]nc2c1C(c1ccccc1Cl)C(C#N)=C(N)O2 (stereo not drawn),7.1
14,O=C(Nc1ccccc1N1CCOCC1)c1cc(-c2ccco2)nc2ccccc12,1.4
15,CC(=O)Nc1ccc(NC(=O)CSc2ccc(-c3ccco3)nn2)cc1,-2.54
16,O=C(O)COc1ccc(Oc2ccccc2)cc1,4.36
17,Cc1cc2nc(SCCN3CCCC3)[nH]c2cc1C,-17
18,COc1ccc(CNC(=O)CN2C(=O)c3ccccc3C2=O)cc1,14.5
19,O=c1[nH]c(N2CCN(Cc3ccc4c(c3)OCO4)CC2)nc2c1CCC2,3.47
20,COc1cc(S(=O)(=O)N2CCOCC2)ccc1NC(=O)CSc1n[nH]c(=O)[nH]c1=O,7.55
21,CC(C)CN(C(=O)c1cccc(S(=O)(=O)N2CCCCC2)c1)C1CCS(=O)(=O)C1 (stereo not drawn),0.956
22,Cc1cccc(CSc2cccc3cccnc23)c1,3.05
